Data from ChEMBL document CHEMBL1201862, “PubChem BioAssay data set” (2004).
Counter-ions that a name gives are not always drawn.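 These data come from cells grown in 96-well plates and exposed to compound for 48 hours at five concentrations. GI50 is the concentration that inhibits growth by half.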 Activity calls are given as the source filed them. Cut-off read from the data, not from the text of the source: active = GI50 up to about 1.1 µM and inactive = higher.

tested on: NCI-H322M; experiment: DTP human tumour cell line panel, 48 h

| SMILES | GI50 |
| --- | --- |
| COc1cc2ccc(=O)oc2cc1O [SCOPOLETIN] | inactive: 42.2 µM |
| Cc1cc(C)c(/C=C2\C(=O)Nc3ccccc32)[nH]1 [SEMAXANIB] | inactive: > 100 µM |
| C/C=C1/C[C@@H](C)[C@@](C)(O)C(=O)OCC2=CC[N+]3([O-])CC[C@@H](OC1=O)[C@@H]23 (some centres undefined) [SENECIONINE N-OXIDE] | inactive: > 100 µM |
| C=C1C/C(=C/C)C(=O)O[C@@H]2CCN3CC=C(COC(=O)[C@]1(C)O)[C@H]23 [SENECIPHYLLINE] | inactive: > 100 µM |
| CC(C)=CCc1c2c(c3occ(-c4ccc(O)cc4)c(=O)c3c1O)CC(C(C)(C)O)O2 (centres undefined) [SENEGALENSIN] | inactive: 6.38 µM |
| CCC(C)(C)C(=O)O[C@H]1C[C@@H](C)C=C2C=C[C@H](C)[C@H](CC[C@@H]3C[C@@H](O)CC(=O)O3)[C@H]21 [SIMVASTATIN] | inactive: > 30 µM |
| C=C(C)[C@H]1CC[C@@]23O[C@@H]2[C@@H](C[C@@]2(C)CC(=O)[C@H](CC(=O)C1)O2)OC(=O)[C@@]12CC[C@H](C(=C)C)CC(=O)C[C@H]4O[C@](C)(CC4=O)C[C@@H](OC3=O)[C@@H]1O2 [SINGARDIN] | inactive: > 100 µM |
| COc1cccc(O)c1-c1cc(=O)c2c(O)c(OC)c(OC)c(OC)c2o1 [SKULLCAPFLAVONE II] | inactive: 48.9 µM |
| Cc1cc(O)c2c(c1)C(=O)c1c(c(O)cc(O)c1-c1c(O)cc(O)c3c1C(=O)c1cc(C)cc(O)c1C3=O)C2=O [SKYRIN] | inactive: 22.6 µM |
| CN(Cc1ccccc1)C(=S)S [SODIUM BENZYL(METHYL)CARBAMODITHIOATE] | inactive: 47.8 µM |
| CCCC(=O)[O-].[Na+] [SODIUM BUTYRATE] | inactive: 3460 µM |
| CN(C)C(=S)S [SODIUM DIMETHYLCARBAMODITHIOATE] | inactive: > 61.7 µM |
| CN[C@@H]1[C@H](O)[C@H](NC)[C@H]2O[C@@]3(O)C(=O)C[C@@H](C)O[C@H]3O[C@@H]2[C@H]1O [SPECTINOMYCIN SULFATE] | inactive: > 100 µM |
| NCCCCNCCCN [SPERMIDINE TRIHYDROCHLORIDE] | inactive: > 100 µM |
| O=C1NC2(CCCCC2)C(=O)N1CCN(CCCl)CCCl [SPIROMUSTINE] | inactive: > 250 µM |
| Cc1cn([C@H]2C=C[C@@H](CO)O2)c(=O)[nH]c1=O [STAVUDINE] | inactive: > 1000 µM |
| COc1cc(C)c2c(c1C=O)Oc1c(c(C)c(O)c3c1C(O)OC3=O)OC2=O (centres undefined) [STICTIC ACID] | inactive: 56.5 µM |
| CC(=O)O[C@@H]1CO[C@H]2O[C@H]3[C@@H](C(C=O)=C[C@H](O)[C@@H]4C5=C(C(C)C)CC[C@]5(C)CC[C@@]34C)[C@@]2(O)C1=O [STRIATIN E] | active: 0.975 µM |
| C[C@]12CC[C@H]3[C@@H](CC[C@]4(O)C[C@@H](O)CC[C@]34C=O)[C@@]1(O)CC[C@@H]2C1=CC(=O)OC1 [STROPHANTHIDIN] | active: 0.918 µM |
| C[C@]12CC[C@H]3[C@@H](CC[C@]4(O)C[C@@H](O)CC[C@]34CO)[C@@]1(O)CC[C@@H]2C1=CC(=O)OC1 [STROPHANTHIDOL] | inactive: 2.86 µM |
| COc1cc2oc(=O)ccc2cc1CC=C(C)C [SUBEROSIN] | inactive: 69.8 µM |
| Nc1ccc(S(=O)(=O)Nc2cnc3ccccc3n2)cc1 [SULFAQUINOXALINE] | inactive: > 100 µM |
| O=C(Nc1ccc(Cl)cc1)NS(=O)(=O)c1ccc2c(c1)CCC2 [SULOFENUR] | inactive: 34.2 µM |

| SMILES | GI50 |
| --- | --- |
| Cc1ccc(C(=O)Nc2ccc(S(=O)(=O)O)c3cc(S(=O)(=O)O)cc(S(=O)(=O)O)c23)cc1NC(=O)c1cccc(NC(=O)Nc2cccc(C(=O)Nc3cc(C(=O)Nc4ccc(S(=O)(=O)O)c5cc(S(=O)(=O)O)cc(S(=O)(=O)O)c45)ccc3C)c2)c1 [SURAMIN] | inactive: 61.4 µM |
| C=CCNC1=C2C[C@@H](C)C[C@H](OC)[C@H](O)[C@@H](C)/C=C(\C)[C@H](OC(N)=O)[C@@H](OC)/C=C\C=C(/C)C(=O)NC(=CC1=O)C2=O [TANESPIMYCIN] | active: 0.0977 µM |
| COc1ccc(-c2cc(=O)c3c(OC)c(OC)c(OC)c(OC)c3o2)cc1 [TANGERETIN] | inactive: 75.5 µM |
| COc1ccc2c(=O)oc3c(OC)cc(CCN(C)C)c4c(=O)oc1c2c34 [TASPINE] | inactive: 8.51 µM |
| Cn1nnc2c(C(N)=O)ncn2c1=O [TEMOZOLOMIDE] | inactive: > 100 µM |
| COc1cc(-c2oc3c(OC)c(OC)cc(O)c3c(=O)c2OC)ccc1O [TERNATIN] | inactive: 9.84 µM |
| CC1(O)CCC(C(C)(C)O)CC1 (centres undefined) [TERPIN] | inactive: > 100 µM |
| c1ccc(-c2cccc(-c3ccccn3)n2)nc1 [TERPYRIDINE] | active: 0.466 µM |
| C[C@]12C=CC(=O)C=C1CC[C@@H]1[C@@H]2CC[C@]2(C)OC(=O)CC[C@@H]12 [TESTOLACTONE] | inactive: > 422 µM |
| COc1ccc2c(c1OC)CN1CCc3cc4c(cc3C1C2)OCO4 (centres undefined) [TETRAHYDROBERBERINE] | inactive: > 100 µM |
| CC(=O)Oc1ccc(O)c(O)c1C/C=C(\C)CC/C=C(\C)CC/C=C(\C)CCC=C(C)C [TETRAPRENYLPHENOLSUILLIN] | inactive: 1.84 µM |
| O=C(O)CN1CCN(CC(=O)O)CCN(CC(=O)O)CCN(CC(=O)O)CC1 [TETRAXETAN] | inactive: > 100 µM |
| c1ccc(-c2nn(-c3ccccc3)[n+](-c3ccccc3)n2)cc1 [TETRAZOLIUM RED] | inactive: 19.1 µM |
| COc1cc(C[C@H]2c3cc(OC)c(OC)cc3CCN2C)c(Oc2cc3c(cc2OC)-c2c(OC)c(OC)cc4c2[C@H](C3)N(C)CC4)cc1OC [THALICARPINE] | inactive: 8.39 µM |
| O=C1CCC(N2C(=O)c3ccccc3C2=O)C(=O)N1 (centres undefined) [THALIDOMIDE] | inactive: > 100 µM |
| COc1cc2c(cc1O)CCN(C)[C@H]2Cc1ccc(Oc2c(O)c(OC)cc3c2C[C@H]2c4c(c(OC)c(OC)c(OC)c4-3)CCN2C)cc1 [THALIFABERIDINE] | inactive: 5.09 µM |
| Fc1cccc(F)c1C1SCc2nc3ccccc3n21 (centres undefined) [THIAZOLOBENZIMIDAZOLE] | inactive: > 100 µM |
| O=C(O)CS [THIOGLYCOLIC ACID] | inactive: > 100 µM |
| Nc1nc2[nH]cnc2c(=S)[nH]1 [THIOGUANINE] | inactive: 9.2 µM |
| OC[C@H]1O[C@@H](n2cnc3c(S)ncnc32)[C@H](O)[C@@H]1O [THIOINOSINE] | inactive: > 2500 µM |
| S=P(N1CC1)(N1CC1)N1CC1 [THIOTEPA] | inactive: 238 µM |
| O=C(Nc1ncc([N+](=O)[O-])s1)c1ccccc1O [TIZOXANIDE] | inactive: 19.8 µM |
| Nc1ncnc2c1nc(Cl)n2[C@@H]1O[C@@H]2COP(=O)(O)O[C@H]2[C@H]1O [TOCLADESINE] | inactive: 52 µM |

| SMILES | GI50 |
| --- | --- |
| C[C@H]1CC[C@]2(NC1)O[C@H]1C[C@H]3[C@@H]4CC[C@H]5C[C@@H](O[C@@H]6O[C@H](CO)[C@H](O[C@@H]7O[C@H](CO)[C@@H](O)[C@H](O[C@@H]8OC[C@@H](O)[C@H](O)[C@H]8O)[C@H]7O[C@@H]7O[C@H](CO)[C@@H](O)[C@H](O)[C@H]7O)[C@H](O)[C@H]6O)CC[C@]5(C)[C@H]4CC[C@]3(C)[C@H]1[C@@H]2C [TOMATINE] | inactive: 1.73 µM |
| CC[C@@]1(O)C(=O)OCc2c1cc1n(c2=O)Cc2cc3c(CN(C)C)c(O)ccc3nc2-1 [TOPOTECAN HYDROCHLORIDE] | active: 0.264 µM |
| Cc1ccc(S(=O)(=O)N[C@@H](Cc2ccccc2)C(=O)CCl)cc1 [TPCK] | inactive: 17 µM |
| C[C@]12C=CC(=O)C=C1CC[C@H]1[C@@H]3C[C@@H](O)[C@](O)(C(=O)CO)[C@@]3(C)C[C@H](O)[C@@]12F [TRIAMCINOLONE] | inactive: > 100 µM |
| NC(=S)N/N=C/c1ncccc1N [TRIAPINE] | inactive: 3.46 µM |
| CCCC(=O)OCC(COC(=O)CCC)OC(=O)CCC [TRIBUTYRIN] | inactive: > 100 µM |
| O=C(O)CC(CC(=O)O)C(=O)O [TRICARBALLYLIC ACID] | inactive: > 100 µM |
| O[C@H]1[C@H]2[C@H](O)CCCN2C[C@H]1O [TRIDOLGOSIR] | inactive: > 100 µM |
| CC(C)[C@]12O[C@H]1[C@@H]1O[C@@]13[C@@]1(C)CCC4=C(COC4=O)[C@@H]1C[C@@H]1O[C@@]13C2=O [TRIPTONIDE] | active: 0.0264 µM |
| COc1cc2c3c(c4ccc(OC)c(OC)c4c2cc1OC)CN1CCC[C@@H]1C3 [TYLOCREBRINE] | active: 0.0755 µM |
| CC(C)(C)c1cc(C=C(C#N)C#N)cc(C(C)(C)C)c1O [TYRPHOSTIN A9] | active: 0.395 µM |
| COc1cc2ncnc(Nc3cccc(Cl)c3)c2cc1OC [TYRPHOSTIN AG-1478] | active: 0.327 µM |
| O=c1ccc2ccc(O)cc2o1 [UMBELLIFERONE] | inactive: > 100 µM |
| C=CCCCCCCCCC(=O)O [UNDECYLENIC ACID] | inactive: 21.4 µM |
| Oc1ncc(N(CCCl)CCCl)c(O)n1 [URACIL MUSTARD] | inactive: 115 µM |
| O=c1cc[nH]c(=O)[nH]1 [URACIL] | inactive: 632 µM |
| COc1cc(O)c(Cc2ccccc2O)c(O)c1C(=O)CCc1ccccc1 [UVARETIN] | inactive: 6.92 µM |
| COc1cc(C=O)ccc1O [VANILLIN] | inactive: > 100 µM |
| Cc1c([C@H](C)[C@@H]2NC[C@@H](C)C[C@H]2O)ccc2c1C[C@H]1[C@H]2CC=C2C[C@@H](O)CC[C@@]21C [VERATRAMINE] | inactive: 11.9 µM |
| COc1ccc(C(=O)O[C@H]2CC[C@@]3(C)[C@@H]4CC[C@H]5[C@]6(O)C[C@H](O)[C@@]7(O)[C@@H](CN8C[C@@H](C)CC[C@H]8[C@@]7(C)O)[C@]6(O)C[C@@]53OC24O)cc1OC [VERATRIDINE] | inactive: > 100 µM |
| CC[C@]12CN3CCc4c([nH]c5ccccc45)[C@@](C(=O)OC)(c4cc5c(cc4OC)N(C)[C@H]4[C@@](O)(C(=O)OC)[C@H](OC(C)=O)[C@]6(CC)C=CCN7CC[C@]54[C@@H]76)CC(C3)[C@H]1O2 (some centres undefined) [VINLEUROSINE SULFATE] | active: < 0.01 µM |
| COc1cc(C/C=C/c2ccccc2)c(OC)cc1O [VIOLASTYRENE] | inactive: 44.4 µM |
| NCCCNCCS [WR-1065] | inactive: > 100 µM |
